# The list shows a part of the results.
# B1: Gal 4 (Mus musculus), P56470 (protein)
# chain: MAYVPAPGYQPTYNPTLPYYQPIPGGLNVGMSVYIQGVASEHMKRFFVNFVVGQDPGSDVAFHFNPRFDGWDKVVFNTLQGGKWGSEERKRSMPFKKGAAFELVFIVLAEHYKVVVNGNPFYEYGHRLPLQMVTHLQVDGDLQLQSINFIGGQPLRPQGPPMMPPYPGPGHCHQQLNSLPTMEGPPTFNPPVPYFGRLQGGLTARRTIIIKGYVPPTGKSFAINFKVGSSGDIALHINPRMGNGTVVRNSLLNGSWGSEEKKITHNPFGPGQFFDLSIRCGLDRFKVYANGQHLFDFAHRLSAFQRVDTLEIQGDVTLSYVQI
# Key:
# Experiment in all cases: glycan array binding signal (z-score within array); higher = stronger binding
# Conditions in all cases: glycan notation: IUPAC condensed, linker removed
# [1] = target: Neu5Ac(a2-3)Gal6S(b1-4)[Fuc(a1-3)]GlcNAc
# In short: (§1)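 From the Consortium for Functional Glycomics database, 3228 arrays were curated, keeping only those whose protein sequence was available. Binding is given as a within-array Z-score averaged across arrays sharing a protein sequence and across linkers. Negative Z-scores can be read as non-binding.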
# Neu5Ac(a2-3)GalNAc = target: Neu5Ac(a2-3)GalNAc
# In short: as §1
# [2] = target: Neu5Ac(a2-3)GalNAc(b1-4)GlcNAc
# In short: as §1
# [3] = target: Neu5Ac(a2-3)[GalNAc(b1-4)]Gal(b1-4)Glc
# In short: as §1
# [4] = target: Neu5Ac(a2-3)[GalNAc(b1-4)]Gal(b1-4)GlcNAc
# In short: as §1
# [5] = target: Neu5Ac(a2-3)[GalNAc(b1-4)]Gal(b1-4)GlcNAc(b1-3)GalNAc
# In short: as §1
# [6] = target: Neu5Ac(a2-3)[Neu5Ac(a2-6)]GalNAc
# In short: as §1
# Neu5Ac(a2-6)Gal = target: Neu5Ac(a2-6)Gal
# In short: as §1
# [7] = target: Neu5Ac(a2-6)Gal(b1-3)GlcNAc(b1-3)[Gal(b1-4)GlcNAc(b1-6)]Gal(b1-4)Glc
# In short: as §1
# Neu5Ac(a2-6)Gal(b1-4)Glc = target: Neu5Ac(a2-6)Gal(b1-4)Glc
# In short: as §1
# [8] = target: Neu5Ac(a2-6)Gal(b1-4)GlcNAc
# In short: as §1
# [9] = target: Neu5Ac(a2-6)Gal(b1-4)GlcNAc(b1-2)Man
# In short: as §1
# [10] = target: Neu5Ac(a2-6)Gal(b1-4)GlcNAc(b1-2)Man(a1-3)Man(b1-4)GlcNAc(b1-4)GlcNAc
# In short: as §1
# [11] = target: Neu5Ac(a2-6)Gal(b1-4)GlcNAc(b1-2)Man(a1-3)[Gal(b1-4)GlcNAc(b1-2)Man(a1-6)]Man(b1-4)GlcNAc(b1-4)GlcNAc
# In short: as §1
# [12] = target: Neu5Ac(a2-6)Gal(b1-4)GlcNAc(b1-2)Man(a1-3)[GlcNAc(b1-2)Man(a1-6)]Man(b1-4)GlcNAc(b1-4)GlcNAc
# In short: as §1
# [13] = target: Neu5Ac(a2-6)Gal(b1-4)GlcNAc(b1-2)Man(a1-3)[GlcNAc(b1-2)Man(b1-4)GlcNAc(b1-2)Man(a1-6)]Man(b1-4)GlcNAc(b1-4)GlcNAc
# In short: as §1
# [14] = target: Neu5Ac(a2-6)Gal(b1-4)GlcNAc(b1-2)Man(a1-3)[GlcNAc(b1-4)][Neu5Ac(a2-6)Gal(b1-4)GlcNAc(b1-2)Man(a1-6)]Man(b1-4)GlcNAc(b1-4)GlcNAc
# In short: as §1
# [15] = target: Neu5Ac(a2-6)Gal(b1-4)GlcNAc(b1-2)Man(a1-3)[Man(a1-6)]Man(b1-4)GlcNAc(b1-4)GlcNAc
# In short: as §1
# [16] = target: Neu5Ac(a2-6)Gal(b1-4)GlcNAc(b1-2)Man(a1-3)[Neu5Ac(a2-3)Gal(b1-4)GlcNAc(b1-2)Man(a1-6)]Man(b1-4)GlcNAc(b1-4)GlcNAc
# In short: as §1
# [17] = target: Neu5Ac(a2-6)Gal(b1-4)GlcNAc(b1-2)Man(a1-3)[Neu5Ac(a2-6)Gal(b1-4)GlcNAc(b1-2)Man(a1-6)]Man(b1-4)GlcNAc(b1-4)GlcNAc
# In short: as §1
# [18] = target: Neu5Ac(a2-6)Gal(b1-4)GlcNAc(b1-2)Man(a1-3)[Neu5Ac(a2-6)Gal(b1-4)GlcNAc(b1-2)Man(a1-6)]Man(b1-4)GlcNAc(b1-4)[Fuc(a1-6)]GlcNAc
# In short: as §1
# [19] = target: Neu5Ac(a2-6)Gal(b1-4)GlcNAc(b1-2)Man(a1-6)Man(b1-4)GlcNAc(b1-4)GlcNAc
# In short: as §1
# [20] = target: Neu5Ac(a2-6)Gal(b1-4)GlcNAc(b1-2)Man(a1-6)[Gal(b1-4)GlcNAc(b1-2)Man(a1-3)]Man(b1-4)GlcNAc(b1-4)GlcNAc
# In short: as §1
# [21] = target: Neu5Ac(a2-6)Gal(b1-4)GlcNAc(b1-2)Man(a1-6)[GlcNAc(b1-2)Man(a1-3)]Man(b1-4)GlcNAc(b1-4)GlcNAc
# In short: as §1
# [22] = target: Neu5Ac(a2-6)Gal(b1-4)GlcNAc(b1-2)Man(a1-6)[Man(a1-3)]Man(b1-4)GlcNAc(b1-4)GlcNAc
# In short: as §1
# [23] = target: Neu5Ac(a2-6)Gal(b1-4)GlcNAc(b1-2)[Neu5Ac(a2-6)Gal(b1-4)GlcNAc(b1-4)]Man(a1-3)[GlcNAc(b1-4)][Neu5Ac(a2-6)Gal(b1-4)GlcNAc(b1-2)[Neu5Ac(a2-6)Gal(b1-4)GlcNAc(b1-6)]Man(a1-6)]Man(b1-4)GlcNAc(b1-4)GlcNAc
# In short: as §1
# [24] = target: Neu5Ac(a2-6)Gal(b1-4)GlcNAc(b1-2)[Neu5Ac(a2-6)Gal(b1-4)GlcNAc(b1-4)]Man(a1-3)[GlcNAc(b1-4)][Neu5Ac(a2-6)Gal(b1-4)GlcNAc(b1-4)Man(a1-6)]Man(b1-4)GlcNAc(b1-4)GlcNAc
# In short: as §1
# [25] = target: Neu5Ac(a2-6)Gal(b1-4)GlcNAc(b1-2)[Neu5Ac(a2-6)Gal(b1-4)GlcNAc(b1-6)]Man(a1-6)[Neu5Ac(a2-6)Gal(b1-4)GlcNAc(b1-2)Man(a1-3)][GlcNAc(b1-4)]Man(b1-4)GlcNAc(b1-4)GlcNAc
# In short: as §1
# [26] = target: Neu5Ac(a2-6)Gal(b1-4)GlcNAc(b1-3)Gal(b1-3)GlcNAc
# In short: as §1
# [27] = target: Neu5Ac(a2-6)Gal(b1-4)GlcNAc(b1-3)Gal(b1-4)GlcNAc
# In short: as §1
# [28] = target: Neu5Ac(a2-6)Gal(b1-4)GlcNAc(b1-3)Gal(b1-4)GlcNAc(b1-2)Man(a1-3)[Neu5Ac(a2-6)Gal(b1-4)GlcNAc(b1-3)Gal(b1-4)GlcNAc(b1-2)Man(a1-6)]GalNAc
# In short: as §1
# [29] = target: Neu5Ac(a2-6)Gal(b1-4)GlcNAc(b1-3)Gal(b1-4)GlcNAc(b1-3)Gal(b1-4)GlcNAc
# In short: as §1
# [30] = target: Neu5Ac(a2-6)Gal(b1-4)GlcNAc(b1-3)Gal(b1-4)GlcNAc(b1-3)Gal(b1-4)GlcNAc(b1-2)Man(a1-3)[Neu5Ac(a2-6)Gal(b1-4)GlcNAc(b1-3)Gal(b1-4)GlcNAc(b1-3)Gal(b1-4)GlcNAc(b1-2)Man(a1-6)]GalNAc
# In short: as §1
# [31] = target: Neu5Ac(a2-6)Gal(b1-4)GlcNAc(b1-3)Gal(b1-4)GlcNAc(b1-3)GalNAc
# In short: as §1
# [32] = target: Neu5Ac(a2-6)Gal(b1-4)GlcNAc(b1-3)Gal(b1-4)GlcNAc(b1-3)[Neu5Ac(a2-6)Gal(b1-4)GlcNAc(b1-3)Gal(b1-4)GlcNAc(b1-6)]GalNAc
# In short: as §1
# [33] = target: Neu5Ac(a2-6)Gal(b1-4)GlcNAc(b1-3)Gal(b1-4)GlcNAc(b1-6)[Gal(b1-3)]GalNAc
# In short: as §1
# [34] = target: Neu5Ac(a2-6)Gal(b1-4)GlcNAc(b1-3)Gal(b1-4)[Fuc(a1-3)]GlcNAc(b1-3)Gal(b1-4)[Fuc(a1-3)]GlcNAc
# In short: as §1
# [35] = target: Neu5Ac(a2-6)Gal(b1-4)GlcNAc(b1-3)GalNAc
# In short: as §1
# [36] = target: Neu5Ac(a2-6)Gal(b1-4)GlcNAc(b1-3)[Neu5Ac(a2-6)Gal(b1-4)GlcNAc(b1-6)]GalNAc
# In short: as §1
binder,measurement,setting,value
B1,glycan array binding signal (z-score),[1],-0.242
same,glycan array binding signal (z-score),Neu5Ac(a2-3)GalNAc,-0.225
same,glycan array binding signal (z-score),[2],-0.227
same,glycan array binding signal (z-score),[3],-0.229
same,glycan array binding signal (z-score),[4],-0.234
same,glycan array binding signal (z-score),[5],-0.197
same,glycan array binding signal (z-score),[6],-0.218
same,glycan array binding signal (z-score),Neu5Ac(a2-6)Gal,-0.219
same,glycan array binding signal (z-score),[7],-0.226
same,glycan array binding signal (z-score),Neu5Ac(a2-6)Gal(b1-4)Glc,-0.211
same,glycan array binding signal (z-score),[8],-0.231
same,glycan array binding signal (z-score),[9],-0.318
same,glycan array binding signal (z-score),[10],-0.214
same,glycan array binding signal (z-score),[11],-0.202
same,glycan array binding signal (z-score),[12],-0.244
same,glycan array binding signal (z-score),[13],-0.209
same,glycan array binding signal (z-score),[14],-0.295
same,glycan array binding signal (z-score),[15],-0.235
same,glycan array binding signal (z-score),[16],-0.377
same,glycan array binding signal (z-score),[17],-0.226
same,glycan array binding signal (z-score),[18],-0.261
same,glycan array binding signal (z-score),[19],-0.225
same,glycan array binding signal (z-score),[20],-0.196
same,glycan array binding signal (z-score),[21],-0.222
same,glycan array binding signal (z-score),[22],-0.217
same,glycan array binding signal (z-score),[23],-0.271
same,glycan array binding signal (z-score),[24],-0.308
same,glycan array binding signal (z-score),[25],-0.286
same,glycan array binding signal (z-score),[26],0.457
same,glycan array binding signal (z-score),[27],-0.165
same,glycan array binding signal (z-score),[28],-0.269
same,glycan array binding signal (z-score),[29],-0.073
same,glycan array binding signal (z-score),[30],-0.294
same,glycan array binding signal (z-score),[31],-0.155
same,glycan array binding signal (z-score),[32],-0.252
same,glycan array binding signal (z-score),[33],-0.027
same,glycan array binding signal (z-score),[34],-0.213
same,glycan array binding signal (z-score),[35],-0.248
same,glycan array binding signal (z-score),[36],-0.251
